Data reported in EP4692114A1, “CALCITONIN ANALOGUE, AND DERIVATIVE THEREOF AND USE THEREOF” (Hangzhou Sciwind Biosciences Co., Ltd., priority 2023, dated 2024).
Not every detail of the peptide structures is certain; ends, links or a residue may be inferred. *1 amine or outer side, *2 acyl side, *3 side chain or, on linkers, in order; H or OH if unused. Where a SMILES comes first, the peptide text is derived from it. The star is where a group is joined. C20 diacid = O=C(O)CCCCCCCCCCCCCCCCCCC(=O)*; γGlu = O=C(O)[C@H](CCC(=O)[*:2])N[*:1]

Target: T1, human amylin receptors (Homo sapiens, UniProt O60896+P30988)
T1 sequence (P30988 25-474): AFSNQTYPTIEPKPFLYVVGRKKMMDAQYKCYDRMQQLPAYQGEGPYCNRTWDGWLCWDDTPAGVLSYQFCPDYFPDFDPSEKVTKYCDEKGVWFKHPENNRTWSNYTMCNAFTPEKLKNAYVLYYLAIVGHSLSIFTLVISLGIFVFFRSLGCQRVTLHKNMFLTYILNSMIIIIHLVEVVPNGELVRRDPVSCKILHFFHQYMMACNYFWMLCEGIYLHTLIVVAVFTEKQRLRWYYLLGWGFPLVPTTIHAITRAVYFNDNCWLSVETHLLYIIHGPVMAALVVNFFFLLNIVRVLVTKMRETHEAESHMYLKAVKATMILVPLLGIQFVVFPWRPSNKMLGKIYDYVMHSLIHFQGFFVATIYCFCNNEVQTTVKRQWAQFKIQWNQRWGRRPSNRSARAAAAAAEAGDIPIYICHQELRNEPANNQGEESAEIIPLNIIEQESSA
T1 sequence (O60896 24-148 partner): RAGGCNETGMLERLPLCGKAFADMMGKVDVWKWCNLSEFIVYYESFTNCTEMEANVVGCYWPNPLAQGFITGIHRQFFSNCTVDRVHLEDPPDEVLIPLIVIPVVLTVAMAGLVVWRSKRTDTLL
Test: Luciferase assay of amylin (amylin receptor/CRE-luc cell line)
Type: cell-based
Settings: stably transfected amylin receptor/CRE-luc CHO cells (CHO-K1/Gal5/AMY3), 24 hours incubation, luciferase readout

Compound	EC50
CC(C)C[C@H](NC(=O)[C@H](CCCNC(=N)N)NC(=O)CNC(=O)[C@H](CC(C)C)NC(=O)[C@@H](NC(=O)[C@H](C)NC(=O)[C@@H](NC(=O)[C@H](CO)NC(=O)[C@H](CC(C)C)NC(=O)[C@H](CCC(N)=O)NC(=O)[C@H](CO)NC(=O)[C@H](C)NC(=O)CC[C@H](NC(=O)CCCCCCCCCCCCCCCCCCC(=O)O)C(=O)O)[C@@H](C)O)C(C)C)C(=O)N[C@@H](CO)C(=O)N[C@@H](CCC(N)=O)C(=O)N[C@@H](CCC(=O)O)C(=O)N[C@@H](CC(C)C)C(=O)N[C@@H](Cc1c[nH]cn1)C(=O)N[C@@H](CCCNC(=N)N)C(=O)N[C@@H](CC(C)C)C(=O)N[C@@H](CCC(N)=O)C(=O)N[C@@H](CC(=O)O)C(=O)N[C@@H](Cc1ccc(O)cc1)C(=O)N1CCC[C@H]1C(=O)N[C@@H](CCCNC(=N)N)C(=O)N[C@H](C(=O)N[C@@H](CC(=O)O)C(=O)N[C@H](C(=O)NCC(=O)N[C@@H](CO)C(=O)NCC(=O)N[C@@H](CO)C(=O)N1CCC[C@H]1C(N)=O)C(C)C)[C@@H](C)O [M6] ({C20 diacid-γGlu}-ASQLSTAVLGRLSQELHRLQDYPRTDVGSGSP-NH2)	0.017 nM
CC(C)C[C@H](NC(=O)[C@H](CCCNC(=N)N)NC(=O)CNC(=O)[C@H](CC(C)C)NC(=O)[C@@H](NC(=O)[C@H](C)NC(=O)[C@@H](NC(=O)[C@H](CO)NC(=O)[C@H](CC(C)C)NC(=O)[C@H](CCC(N)=O)NC(=O)[C@H](CO)NC(=O)[C@H](C)NC(=O)CC[C@H](NC(=O)CCCCCCCCCCCCCCCCCCC(=O)O)C(=O)O)[C@@H](C)O)C(C)C)C(=O)N[C@@H](CO)C(=O)N[C@H](C(=O)N[C@@H](CCC(=O)O)C(=O)N[C@@H](CC(C)C)C(=O)N[C@@H](Cc1c[nH]cn1)C(=O)N[C@@H](CCCNC(=N)N)C(=O)N[C@@H](CC(C)C)C(=O)N[C@@H](CCC(N)=O)C(=O)N[C@@H](CC(=O)O)C(=O)N[C@@H](Cc1ccc(O)cc1)C(=O)N1CCC[C@H]1C(=O)N[C@@H](CCCNC(=N)N)C(=O)N[C@H](C(=O)N[C@@H](CC(=O)O)C(=O)N[C@H](C(=O)NCC(=O)N[C@@H](CO)C(=O)NCC(=O)N[C@@H](CO)C(=O)N1CCC[C@H]1C(N)=O)C(C)C)[C@@H](C)O)[C@@H](C)O [M12] ({C20 diacid-γGlu}-ASQLSTAVLGRLSTELHRLQDYPRTDVGSGSP-NH2)	0.017 nM
CC(C)C[C@H](NC(=O)[C@H](CCCNC(=N)N)NC(=O)CNC(=O)[C@H](CC(C)C)NC(=O)[C@@H](NC(=O)[C@H](C)NC(=O)[C@@H](NC(=O)[C@H](CO)NC(=O)[C@H](CC(C)C)NC(=O)[C@H](CCC(N)=O)NC(=O)[C@H](CO)NC(=O)[C@H](C)NC(=O)CC[C@H](NC(=O)CCCCCCCCCCCCCCCCCCC(=O)O)C(=O)O)[C@@H](C)O)C(C)C)C(=O)N[C@@H](CO)C(=O)N[C@@H](CCC(N)=O)C(=O)N[C@@H](CCC(=O)O)C(=O)N[C@@H](CC(C)C)C(=O)N[C@@H](Cc1c[nH]cn1)C(=O)N[C@@H](CCCNC(=N)N)C(=O)N[C@@H](CC(C)C)C(=O)N[C@@H](CCC(=O)O)C(=O)N[C@@H](CCC(=O)O)C(=O)N[C@@H](Cc1ccc(O)cc1)C(=O)N1CCC[C@H]1C(=O)N[C@@H](CCCNC(=N)N)C(=O)N[C@H](C(=O)N[C@@H](CC(=O)O)C(=O)N[C@H](C(=O)NCC(=O)N[C@@H](CO)C(=O)NCC(=O)N[C@@H](CO)C(=O)N1CCC[C@H]1C(N)=O)C(C)C)[C@@H](C)O [M14] ({C20 diacid-γGlu}-ASQLSTAVLGRLSQELHRLEEYPRTDVGSGSP-NH2)	0.017 nM
CC(C)C[C@H](NC(=O)[C@H](CCCNC(=N)N)NC(=O)CNC(=O)[C@H](CC(C)C)NC(=O)[C@@H](NC(=O)[C@H](C)NC(=O)[C@@H](NC(=O)[C@H](CO)NC(=O)[C@H](CC(C)C)NC(=O)[C@H](CCC(N)=O)NC(=O)[C@H](CO)NC(=O)[C@H](C)NC(=O)CC[C@H](NC(=O)CCCCCCCCCCCCCCCCCCC(=O)O)C(=O)O)[C@@H](C)O)C(C)C)C(=O)N[C@@H](CO)C(=O)N[C@@H](CCC(N)=O)C(=O)N[C@@H](CCC(=O)O)C(=O)N[C@@H](CC(C)C)C(=O)N[C@@H](Cc1c[nH]cn1)C(=O)N[C@@H](CCCNC(=N)N)C(=O)N[C@@H](CC(C)C)C(=O)N[C@@H](CCC(N)=O)C(=O)N[C@@H](CC(=O)O)C(=O)N[C@@H](Cc1ccc(O)cc1)C(=O)N1CCC[C@H]1C(=O)N[C@@H](CCCNC(=N)N)C(=O)N[C@H](C(=O)N[C@@H](CC(=O)O)C(=O)N[C@H](C(=O)NCC(=O)N[C@@H](CO)C(=O)N[C@@H](CCC(=O)O)C(=O)N[C@@H](CO)C(=O)N1CCC[C@H]1C(N)=O)C(C)C)[C@@H](C)O [M21] ({C20 diacid-γGlu}-ASQLSTAVLGRLSQELHRLQDYPRTDVGSESP-NH2)	0.017 nM
CC(C)C[C@H](NC(=O)[C@H](CCCNC(=N)N)NC(=O)CNC(=O)[C@H](CC(C)C)NC(=O)[C@@H](NC(=O)[C@H](CO)NC(=O)[C@@H](NC(=O)[C@H](CO)NC(=O)[C@H](CC(C)C)NC(=O)[C@H](CCC(N)=O)NC(=O)[C@H](CO)NC(=O)[C@H](CO)NC(=O)CC[C@H](NC(=O)CCCCCCCCCCCCCCCCCCC(=O)O)C(=O)O)[C@@H](C)O)C(C)C)C(=O)N[C@@H](CO)C(=O)N[C@@H](CCC(N)=O)C(=O)N[C@@H](CCC(=O)O)C(=O)N[C@@H](CC(C)C)C(=O)N[C@@H](Cc1c[nH]cn1)C(=O)N[C@@H](CCCNC(=N)N)C(=O)N[C@@H](CC(C)C)C(=O)N[C@@H](CCC(N)=O)C(=O)N[C@@H](CC(=O)O)C(=O)N[C@@H](Cc1ccc(O)cc1)C(=O)N1CCC[C@H]1C(=O)N[C@@H](CCCNC(=N)N)C(=O)N[C@H](C(=O)N[C@@H](CC(=O)O)C(=O)N[C@H](C(=O)NCC(=O)N[C@@H](CO)C(=O)NCC(=O)N[C@@H](CO)C(=O)N1CCC[C@H]1C(N)=O)C(C)C)[C@@H](C)O [M28] ({C20 diacid-γGlu}-SSQLSTSVLGRLSQELHRLQDYPRTDVGSGSP-NH2)	0.017 nM
CC(C)C[C@H](NC(=O)[C@H](CCCNC(=N)N)NC(=O)CNC(=O)[C@H](CC(C)C)NC(=O)[C@@H](NC(=O)[C@H](C)NC(=O)[C@@H](NC(=O)[C@H](CO)NC(=O)[C@H](CC(C)C)NC(=O)[C@H](CCC(N)=O)NC(=O)[C@H](CO)NC(=O)[C@H](CO)NC(=O)CC[C@H](NC(=O)CCCCCCCCCCCCCCCCCCC(=O)O)C(=O)O)[C@@H](C)O)C(C)C)C(=O)N[C@@H](CO)C(=O)N[C@@H](CCC(N)=O)C(=O)N[C@@H](CCC(=O)O)C(=O)N[C@@H](CC(C)C)C(=O)N[C@@H](Cc1c[nH]cn1)C(=O)N[C@@H](CCCNC(=N)N)C(=O)N[C@@H](CC(C)C)C(=O)N[C@@H](CCC(N)=O)C(=O)N[C@@H](CC(=O)O)C(=O)N[C@@H](Cc1ccc(O)cc1)C(=O)N1CCC[C@H]1C(=O)N[C@@H](CCCNC(=N)N)C(=O)N[C@H](C(=O)N[C@@H](CC(=O)O)C(=O)N[C@H](C(=O)NCC(=O)N[C@@H](CO)C(=O)NCC(=O)N[C@@H](CO)C(=O)N1CCC[C@H]1C(N)=O)C(C)C)[C@@H](C)O [M30] ({C20 diacid-γGlu}-SSQLSTAVLGRLSQELHRLQDYPRTDVGSGSP-NH2)	0.017 nM
CC(C)C[C@H](NC(=O)[C@H](CCCNC(=N)N)NC(=O)CNC(=O)[C@H](CC(C)C)NC(=O)[C@@H](NC(=O)[C@H](CC(=O)O)NC(=O)[C@@H](NC(=O)[C@H](CO)NC(=O)[C@H](CC(C)C)NC(=O)[C@H](CCC(N)=O)NC(=O)[C@H](CO)NC(=O)[C@H](CCCNC(=N)N)NC(=O)CC[C@H](NC(=O)CCCCCCCCCCCCCCCCCCC(=O)O)C(=O)O)[C@@H](C)O)C(C)C)C(=O)N[C@@H](CO)C(=O)N[C@@H](CCC(N)=O)C(=O)N[C@@H](CCC(=O)O)C(=O)N[C@@H](CC(C)C)C(=O)N[C@@H](Cc1c[nH]cn1)C(=O)N[C@@H](CCCNC(=N)N)C(=O)N[C@@H](CC(C)C)C(=O)N[C@@H](CCC(N)=O)C(=O)N[C@@H](CC(=O)O)C(=O)N[C@@H](Cc1ccc(O)cc1)C(=O)N1CCC[C@H]1C(=O)N[C@@H](CCCNC(=N)N)C(=O)N[C@H](C(=O)N[C@@H](CC(=O)O)C(=O)N[C@H](C(=O)NCC(=O)N[C@@H](CO)C(=O)NCC(=O)N[C@@H](CO)C(=O)N1CCC[C@H]1C(N)=O)C(C)C)[C@@H](C)O [M35] ({C20 diacid-γGlu}-RSQLSTDVLGRLSQELHRLQDYPRTDVGSGSP-NH2)	0.037 nM
CC(C)C[C@H](NC(=O)[C@H](CCCNC(=N)N)NC(=O)CNC(=O)[C@H](CC(C)C)NC(=O)[C@@H](NC(=O)[C@H](C)NC(=O)[C@@H](NC(=O)[C@H](CO)NC(=O)[C@H](CC(C)C)NC(=O)[C@H](CCC(N)=O)NC(=O)[C@H](CO)NC(=O)[C@H](C)NC(=O)CC[C@H](NC(=O)CCCCCCCCCCCCCCCCCCC(=O)O)C(=O)O)[C@@H](C)O)C(C)C)C(=O)N[C@@H](CO)C(=O)N[C@@H](CC(=O)O)C(=O)N[C@@H](CCC(=O)O)C(=O)N[C@@H](CC(C)C)C(=O)N[C@@H](Cc1c[nH]cn1)C(=O)N[C@@H](CCCNC(=N)N)C(=O)N[C@@H](CC(C)C)C(=O)N[C@@H](CCC(N)=O)C(=O)N[C@@H](CC(=O)O)C(=O)N[C@@H](CC(C)C)C(=O)N1CCC[C@H]1C(=O)N[C@@H](CCCNC(=N)N)C(=O)N[C@H](C(=O)N[C@@H](CC(=O)O)C(=O)N[C@H](C(=O)NCC(=O)N[C@@H](CO)C(=O)NCC(=O)N[C@@H](CO)C(=O)N1CCC[C@H]1C(N)=O)C(C)C)[C@@H](C)O [M50] ({C20 diacid-γGlu}-ASQLSTAVLGRLSDELHRLQDLPRTDVGSGSP-NH2)	0.017 nM
